The list shows a part of the results.
tested on: PfAP2-HC AP2 domain (GST-tagged); experiment: gcPBM binding intensity (ln(normalized median fluorescence intensity)); higher = stronger DNA binding
Summary of the method: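 After 1 h on an Agilent 4 × 180k array of primer-extended double-stranded 36-bp intergenic genomic probes and negative controls, bound GST-tagged P. falciparum DNA-binding domains were detected with Alexa488 anti-GST antibody and scanned at 488 nm. The domains had been expressed in E. coli, and binding took place in 1× PBS with 1% milk, 0.2 mg/ml BSA, 0.5% salmon testes DNA and 0.03% Triton X-100. Binding intensity is the highest Masliner-normalised natural-log median intensity across replicate spots of either probe orientation.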

Sequence	gcPBM binding intensity (ln)
TGTAGAAATGGGTGCACACACATATAAAATCTATAT [CACACA_site7224]	10
TAAAAAAATAAATATACACACATATATATATATATA [CACACA_site1089]	9.89
GGATTTATTATATATACACACATACAGATATATATA [CACACA_site5222]	9.78
TCATTAAAAACTAAAAGTACTCAATATTATGAACAT [XGTACX_site7807]	9.38
CATATATATTTGTTCACACACACACTAGAAAAAAAA [CACACA_site5380]	10.2
ACATCATATTAAGAAAGTACAAAAAGAGAACATATA [XGTACX_site1268]	9.91
AAACAAAATTTATTTCAAAGTTAATAATTTTTATGT [CACACA_negctrl_site232]	9.35
ATATTGTAGATATTGTGTACATATTTTACAACTTTT [XGTACX_site7621]	9.81
TATGTACACCCATATACACACCTCTATAATATATAT [CACACA_site4563]	9.88
TCAAAAAATATATTTGCACACTCAAAAAAAAAAAAA [CACACA_site860]	9.53
TACACACATTACAGATGTACATAAAATTAAAAAAAT [XGTACX_site1804]	9.69
TATATATATATAAATACATGCATATAATTAATCCAT [TGCATGCA_site400]	9.64
TTTTTCACATTTCAGTGTACATTTTAATCATATATA [XGTACX_site915]	9.67
CGACAAAAATTTTACAGTACAGTATAAACCTTTTTA [XGTACX_site290]	9.43
TATTTTTTTAAGTGCAGTACACTTAATTTCCCCCAA [XGTACX_site7328]	9.39
ATTTTTTTTTTTTTTTTAAGACAAACTCTTAATTTA [CACACA_negctrl_site1389]	9.4
ATTCCAAAAAAATCAAGTACTAATTTATTATATTAC [XGTACX_site3920]	9.47
AAAAAAAAAAAAAAAAAAATATATTATATATATATA [XGTACX_negctrl_site467]	9.39
TAAAAATAAAGAAAATGTACATAAATAAAAATAAAG [XGTACX_site2279]	9.83

Sequence	gcPBM binding intensity (ln)
TATATATATACATAATGTACAAGAATTTGTATTGAA [XGTACX_site627]	9.63
ACAGGAGTATAACCTCGTACAAAATATATTTACCAT [XGTACX_site5805]	9.62
CCTAGAAAAGCATATACACACGCGCAAAATAAAATT [CACACA_site4902]	9.84
TCTTTAAAAAAAAAAAAAAAAAATTCCAAATAAATA [TGCATGCA_negctrl_site538]	8.89
AAAAAGCAGGATTATACACACAAATATATATATGTT [CACACA_site1077]	9.81
TATATAAATTTAATAACACACATATAAAAATGAATT [CACACA_site2366]	9.71
ATATATATATAACATTGTACACACAAAGAAATAATA [XGTACX_site6440]	10
ATATGTTTACGTAAATGTACACGTCAGTATATTTCT [XGTACX_site8199]	9.87
AACTTGTATATATACACACACACACTATCTTTTTTT [CACACA_site8601]	10.9
TTTTATAATAAGTATGTAAAAATTATATATATATAT [CACACA_negctrl_site711]	9.36
ACACATTATAAAACTGTCGCTCATAAAGAAGAATGA [CACACA_negctrl_site999]	9.89
GCAACAAAAAATCAGACATGCATTTTAAAATGAATA [TGCATGCA_site846]	9.69
CATATTGAATATTTAACACACATTTCGCTTAATTCA [CACACA_site2086]	9.77
TATAAAAAAAAAATTTGTACATAATAATATATATAT [XGTACX_site2074]	9.57
TTATATATAAAATACTGTACATTTAATTGATGGTTT [XGTACX_site2073]	9.62
GAATGAATTGTTATTAGTACACATGTGAATTATAAA [XGTACX_site6790]	9.71
CTTTTATATGTCTAATGTACGGGCAATATAAATTTG [XGTACX_site8323]	9.43
ATATATATATATATATGTACATAATATATGTCCTAT [XGTACX_site5087]	10.1
GTAAGCATAAATATATGTACATACATATACAGATAT [XGTACX_site3361]	9.86

Sequence	gcPBM binding intensity (ln)
TAAGATAAAAAAAATGCATGTTCTTATAATATTGTC [TGCATGCA_site939]	9.64
ATTATATCATCTAAAACATGCACACATATGTACTCT [TGCATGCA_site949]	10.3
GTTGAGAAAATATGTGCATGTCAGGTTAAATTTTTA [TGCATGCA_site744]	9.52
GGTGATATAATATATACATGCACATATATATTATTA [TGCATGCA_site970]	9.62
TATGGAAATATATATTGTACGTATGACCTTTAAAAA [XGTACX_site3935]	9.56
TTACAAAAAAATAATTGTACATACAATTTCTGTTAT [XGTACX_site877]	9.59
TTTATATGTATGAAGTGTACACATATATTGTATTTT [XGTACX_site5731]	9.77
ATTAGTTTACACATATGTACATATATTACAACAAAA [XGTACX_site275]	9.66
TTTATAATAAAATTTTTACACACTTTAAAAAAAAAA [CACACA_site8070]	9.37
TTTTTTTCAATATTTGCACACGATTATAATATTTAA [CACACA_site2237]	9.81
AATATTCGTAATTGATGTACTTGTAATTCATACATT [XGTACX_site8314]	9.67
AATAAATATCTGTACACACACAAATAAATACATATC [CACACA_site5108]	10.3
TATAATAAAAATAATACACACATATATAGCAATCGT [CACACA_site3241]	10.1
CAGAATAATTTTATCGGTACACACTGTATGCATAAT [XGTACX_site736]	9.72
TTTATGTATTTTTATGCACACATGCGTGGCTTATAT [CACACA_site4374]	9.93
TACGGACATACTAACGGACACACGTAAGAAAAAAAA [CACACA_site602]	9.69
TATGACATATCCTGTAGTACAACGTATATATAAGAT [XGTACX_site1327]	9.7
AATAAAAATAATGAATGTACATATATATATACAATA [XGTACX_site3342]	9.74
